Experimental data from PubChem BioAssay (NCI).
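All cell lines were grown in 96-well plates and treated with compound for 48 hours. At the GI50, growth is halved. TGI is the concentration that stops growth completely.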

Tested on: MDA-MB-468 breast
Test: growth of human tumour cells (NCI), 48 h

## CN[C@@H]1C[C@H]2O[C@@](C)([C@@H]1OC)n1c3ccccc3c3c4c(c5c6ccccc6n2c5c31)C(=O)NC4
  GI50: < 10 nM
  TGI: < 10 nM
